{"source": "PubChem BioAssay AID686979", "about": "(National Center for Advancing Translational Sciences (NCATS), 2013)", "note": "Among all 420,000 compounds or so, about 50,000 (12%) were called active. This list was built around the results that the source calls inconclusive (neither active nor inactive); the mix of calls is not that of the screen. The call rests on the fitted dose curve; in most records, active means well fitted inhibition curve with a large enough effect; inconclusive means small, poorly fitted or top-dose-only effect; inactive means flat fitted curve, though single readings scatter. No potency is given beside an inconclusive call; the fits are too rough. On the % scale 0 is the no-effect control and ±100 the full control effect; potency means the concentration at half of the fitted maximal effect; tags describe the fitted curve by direction and shape."}
{"assay": "qHTS for Inhibitors of human tyrosyl-DNA phosphodiesterase 1 (TDP1): qHTS in cells in presence of CPT; further: nearly all actives have a fitted effect of over 55% in size", "settings": "chicken DT40 Tdp1-/-;hTDP1 cells + 20 nM CPT, ATP luminescence, 48 h; activity change, negative = growth inhibition: at 46.2 µM (top of the series) unless noted", "outline": "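Cell growth measured by CellTiter-Glo luminescence after a minimum 48 h, 37 C compound exposure with 20 nM CPT in Tdp1-knockout DT40 cells stably expressing hTDP1, seeded 400/well; qHTS titration format.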"}
{"smiles": "CCOC(=O)c1sc2ccccc2c1S(=O)(=O)Nc1c(C)cccc1C", "Potency": "inconclusive [inhibitor, single point]"}
{"smiles": "Cn1nc(C(=O)NCc2ccccc2)c2c1-c1ccccc1SC2", "Potency": "inconclusive [inhibitor, single point]"}
{"smiles": "O=c1[nH][nH]c(-c2ccccc2O)c1C(C[N+](=O)[O-])c1cccc(Cl)c1", "note": "(stereo not drawn)", "Potency": "inconclusive [inhibitor, single point]"}
{"smiles": "C/C(=N/OCC(=O)Nc1ccc(C)cc1C)c1cccs1", "Potency": "inconclusive [inhibitor, single point]"}
{"smiles": "CN(C(=O)c1cccc(C#N)c1)c1nnc(-c2ccccn2)s1", "activity change, negative = growth inhibition": "inactive: -22.7%"}
{"smiles": "CC(=O)N1N=C(c2c(-c3ccccc3)c3cc(Br)ccc3[nH]c2=O)CC1c1ccco1", "note": "(stereo not drawn)", "Potency": "inconclusive [inhibitor, single point]"}
{"smiles": "Cc1cc(NC(=O)N2CC=C(c3c[nH]c4ccccc34)CC2)ccc1Br", "Potency": "inconclusive [inhibitor, single point]"}
{"smiles": "O=C(Cn1c(=O)n(-c2ccc(F)cc2)c(=O)c2sc3ccccc3c21)N1CCCC1", "activity change, negative = growth inhibition": "inactive: -5.78%"}
{"smiles": "Cc1ccc(NC(=S)N2CCC(NC(=O)c3ccc(F)cc3)CC2)cc1C", "activity change, negative = growth inhibition": "inactive: -1.41%"}
{"smiles": "Cc1ccc(-c2onc(C)c2C)cc1S(=O)(=O)N1CCCCC1", "Potency": "inconclusive [inhibitor, single point]"}
{"smiles": "COC(=O)C1=C(CSCc2ccccc2)NC(=O)NC1c1cc(C)ccc1C", "note": "(stereo not drawn)", "Potency": "inconclusive [inhibitor, single point]"}
{"smiles": "CC(C)(CNCc1ccccc1)NS(=O)(=O)c1ccc(Cl)cc1", "Potency": "inconclusive [inhibitor, single point]"}
{"smiles": "COc1cccc(CNC(=O)Cn2cc3c(n2)-c2c(oc(C(=O)N4CCCC4)c2C)CC3)c1OC", "Potency": "inconclusive [inhibitor, single point]"}
{"smiles": "O=C(NCCc1ccccc1)c1ccc(NC(=O)C2CC2)cc1", "Potency": "inconclusive [inhibitor, single point]"}
{"smiles": "Cc1noc(NS(=O)(=O)c2ccc(NC(=O)c3oc4ccc(Cl)cc4c3C)cc2)c1C", "activity change, negative = growth inhibition": "inactive: -12.8%"}
{"smiles": "COc1ccc(-n2nc(C(=O)N3CCC(C)CC3)c3c4ccccc4n(C)c3c2=O)cc1Cl", "Potency": "inconclusive [inhibitor, partial curve]"}
{"smiles": "Cc1ccc(-c2nnn(CC(=O)N(Cc3ccco3)C(C(=O)NC3CCCC3)c3cccs3)n2)o1", "note": "(stereo not drawn)", "Potency": "inconclusive [inhibitor, single point]"}
{"smiles": "CCOc1ccc(S(=O)(=O)N2CCC(C(=O)N3CCc4ccccc4C3)CC2)cc1", "Potency": "inconclusive [inhibitor, partial curve]"}
{"smiles": "Cc1cc(C)n2nc(SCC(=O)c3c(N)n(CC(C)C)c(=O)n(C)c3=O)nc2n1", "Potency": "inconclusive [inhibitor, partial curve, poor fit]"}
{"smiles": "COc1ccc(NC(=O)c2cc(C3CCCCN3S(=O)(=O)c3c(C)noc3C)on2)c(C)c1", "note": "(stereo not drawn)", "Potency": "inconclusive [inhibitor, single point]"}
{"smiles": "CCCc1noc(-c2ccc(N3CCCCC3)c([N+](=O)[O-])c2)n1", "Potency": "inconclusive [inhibitor, single point]"}
{"smiles": "Cc1ccc(-c2csc(N(Cc3ccccc3)C(=O)COc3ccccc3)n2)cc1", "Potency": "inconclusive [inhibitor, partial curve]"}
{"smiles": "CC(=NNC(=O)Cn1ccc(C(F)(F)F)n1)c1ccc(-n2ccnc2)cc1", "activity change, negative = growth inhibition": "inactive: -25.6%"}
{"smiles": "CC(C)c1ccc(NC(=O)Nc2nc(CN)cs2)cc1", "Potency": "inconclusive [inhibitor, single point]"}
{"smiles": "COC(=O)N/N=C/c1cc(N=Nc2ccccc2)ccc1O", "Potency": "inconclusive [inhibitor, full curve, poor fit]"}
{"smiles": "CC(C)CC(=O)NC(c1ccccc1Cl)c1c(O)ccc2ccccc12", "note": "(stereo not drawn)", "Potency": "inconclusive [inhibitor, single point]"}
{"smiles": "COc1ccc(CCC(=O)NC2CCCCC2)cc1", "activity change, negative = growth inhibition": "inactive: -5.95%"}
{"smiles": "CC(C)Cn1cc(C(=O)NCCCOC(C)C)c2c3ccccc3n(C)c2c1=O", "activity change, negative = growth inhibition": "inactive: -12.6%"}
{"smiles": "Cc1cc(/C=C2/C(=N)N3C(=NC2=O)SN=C3S(C)(=O)=O)c(C)n1-c1ccc(F)cc1", "activity change, negative = growth inhibition": "inactive: 4.22%"}
{"smiles": "Cc1cc(C)cc(N(CCC#N)C(=O)COC(=O)Cn2[nH]c(=O)c3ccccc3c2=O)c1", "activity change, negative = growth inhibition": "inactive: -2.73%"}
{"smiles": "CC(C)(C)c1ccc(OCCCNCc2ccccc2)cc1", "Potency": "inconclusive [inhibitor, single point]"}
{"smiles": "Cc1ccc(S(=O)(=O)N2CCCN(S(=O)(=O)c3ccccc3Br)CC2)cc1", "Potency": "inconclusive [inhibitor, single point]"}
{"smiles": "CN(C)S(=O)(=O)N(CC(=O)NCCSCc1ccccc1Cl)c1ccccc1", "Potency": "inconclusive [inhibitor, single point]"}
{"smiles": "Cc1ccc(NC(=O)COC(=O)Cc2csc(-c3ccc(Cl)cc3)n2)cc1C", "activity change, negative = growth inhibition": "inactive: -2.47%"}
{"smiles": "COc1ccccc1NC(=O)CSc1nnc2ccc(-c3ccccn3)nn12", "Potency": "inconclusive [inhibitor, single point]"}
{"smiles": "O=C(Cc1ccc(Br)cc1)N1CCN(c2ccccn2)CC1", "Potency": "inconclusive [inhibitor, single point]"}
{"smiles": "O=C(NNS(=O)(=O)c1cccc(Cl)c1)c1cc(-c2ccc(F)cc2)nc2ccccc12", "activity change, negative = growth inhibition": "inactive: 6.06%"}
{"smiles": "O=C(Nc1ccc(Cl)c(Cl)c1)c1ccc2c(c1)OCO2", "activity change, negative = growth inhibition": "inactive: 13.5%"}
{"smiles": "O=C(Nc1nnc(SCc2c(Cl)cccc2Cl)s1)C1CC(=O)N(c2ccc3c(c2)OCCO3)C1", "note": "(stereo not drawn)", "Potency": "inconclusive [inhibitor, single point]"}
{"smiles": "CCOC(=O)C1(C)CCCN(C(=O)c2ccccc2OC(F)(F)F)C1", "note": "(stereo not drawn)", "activity change, negative = growth inhibition": "inactive: -25.6%"}
{"smiles": "CN(C)c1nc(N/N=C\\c2ccc(Cl)c([N+](=O)[O-])c2)nc(Nc2ccc(F)cc2)n1", "Potency": "active: 5.17 µM"}
{"smiles": "CCOC(=O)C1CCN(c2ncnc3c2c(-c2ccccc2)cn3-c2ccc(C)cc2)CC1", "Potency": "active: 20.6 µM"}
{"smiles": "Cc1cc(N/N=C/c2cccc([N+](=O)[O-])c2)nc(-n2nc(C)cc2C)n1", "Potency": "active: 4.11 µM"}
{"smiles": "COc1cc(NC(=O)Cn2ncc3c(=O)oc4ccccc4c32)cc(OC)c1OC", "activity change, negative = growth inhibition": "inactive: -3.31%"}
{"smiles": "CCOC(=O)c1ccc(NC(=O)CSc2nccn2C)cc1", "Potency": "inconclusive [inhibitor, partial curve]"}
{"smiles": "CCc1ccc(S(=O)(=O)c2nnn3c2nc(NCCc2ccccc2)c2sccc23)cc1", "Potency": "inconclusive [inhibitor, single point]"}
{"smiles": "Cc1nc2c(cnn2-c2ccccc2Cl)c(=O)n1-c1ccc(C(C)C)cc1", "Potency": "inconclusive [inhibitor, single point]"}
{"smiles": "CCN(CC)S(=O)(=O)c1cccc(NC(=O)CCNC(=O)NC23CC4CC(CC(C4)C2)C3)c1", "Potency": "inconclusive [inhibitor, single point]"}
{"smiles": "CC/C(=N\\N=C1\\SC(C)C(=O)N1Cc1ccco1)c1ccccc1", "note": "(stereo not drawn)", "Potency": "inconclusive [inhibitor, single point]"}
{"smiles": "O=C(NC(=S)N1CCN(c2nc(-c3ccccc3)cs2)CC1)c1cccnc1", "Potency": "inconclusive [inhibitor, single point]"}
{"smiles": "Fc1ccc(NC(=S)Nc2cc(Cl)ccc2Cl)cc1", "Potency": "active: 5.8 µM"}
{"smiles": "Cc1cc(NC(=O)COC(=O)[C@@H](NS(=O)(=O)c2ccc(Br)cc2)C(C)C)no1", "Potency": "inconclusive [inhibitor, single point]"}
{"smiles": "COc1c(Cl)cc(Cl)cc1C(=O)Nc1ccc(CN2CCOCC2)cc1", "Potency": "active: 16.4 µM"}
{"smiles": "Cc1cccc(N2CCN(S(=O)(=O)c3cc(Br)cc4c3N(C(=O)C3CC3)CC4)CC2C)c1", "note": "(stereo not drawn)", "Potency": "inconclusive [inhibitor, single point]"}
{"smiles": "CN(c1cccc(NC(=O)c2ccccc2N(C)S(=O)(=O)c2ccccc2)c1)S(C)(=O)=O", "Potency": "inconclusive [inhibitor, single point]"}
{"smiles": "CCSC(=O)N=Nc1ccc(O)cc1", "Potency": "active: 14.6 µM"}
{"smiles": "O=C(Cc1ccc(S(=O)(=O)N2CCOCC2)s1)Nc1ccccc1N1CCCC1", "Potency": "active: 16.4 µM"}
{"smiles": "O=C(CCCc1nc(-c2ccccc2Cl)no1)NCc1cccnc1", "Potency": "inconclusive [inhibitor, single point]"}
{"smiles": "O=C(Cc1ccccc1F)Nc1cc(S(=O)(=O)N2CCOCC2)ccc1N1CCCC1", "activity change, negative = growth inhibition": "inactive: -8.68%"}
{"smiles": "Cc1ccc2c(c1)c(C)c(C)n2CC(O)CN1CCOCC1", "note": "(stereo not drawn)", "activity change, negative = growth inhibition": "inactive: -18.5%"}
{"smiles": "Cc1cc(N2CCCC2=O)ccc1S(=O)(=O)NC1CCCCC1", "Potency": "inconclusive [inhibitor, single point]"}
{"smiles": "Cc1ccc(C(=O)CSc2nnc(-c3ccc4[nH]c(C)c(C)c4c3)o2)cc1C", "Potency": "inconclusive [inhibitor, single point]"}
{"smiles": "COc1ccc(CCn2cc3c(c2-c2ccccc2Br)c(=O)n(C)c(=O)n3C)cc1OC", "Potency": "active: 20.6 µM"}
{"smiles": "Cc1ccc(NC(=O)C2C3C=CC4(CN(Cc5cccnc5)C(=O)C24)O3)cc1F", "note": "(stereo not drawn)", "activity change, negative = growth inhibition": "inactive: -2.19%"}
{"smiles": "COc1ccc(CN2CCN(C(=O)C3CCC(CNS(=O)(=O)c4ccc(C)cc4)CC3)CC2)c(OC)c1OC", "note": "(stereo not drawn)", "Potency": "inconclusive [inhibitor, single point]"}
{"smiles": "CCOC(=O)C1CCN(c2nc3ccccc3nc2C(C#N)C(=O)OCCOC)CC1", "note": "(stereo not drawn)", "Potency": "inconclusive [inhibitor, single point]"}
{"smiles": "COC(=O)c1ccc(-c2ccc(/C=N/NC(=O)CC3(C)OCCCO3)o2)cc1", "activity change, negative = growth inhibition": "inactive: -10.2%"}
{"smiles": "CC(=O)c1cccc(NC(=O)CCc2nc3sc4c(c3c(=O)[nH]2)CCCC4)c1", "Potency": "inconclusive [inhibitor, single point]"}
